From patent publication US20240076343A1 come the findings set out here.

Common to all, as to assay: cell-based or functional assay
In assay [1] the target is intermediate affinity hIL-2 receptor (hIL-2Rβγ) on TF1+IL-2Rβ cells (human) (UniProt P14784).
In assay [2] the target is high-affinity hIL-2 receptor (IL-2Rαβγ) on NK-92 cells (human) (UniProt P01589).
In assay [3] the target is intermediate affinity hIL-2 receptor complex (IL-2Rβγ) on TF1+IL-2Rβ cells (human) (UniProt P14784).
Assay [4] deals with high-affinity hIL-2 receptor (IL-2Rαβγ) (human) (UniProt P01589).
Assay [5] deals with intermediate affinity hIL-2 receptor complex (IL-2Rβγ) (human) (UniProt P14784).

B1: 1H3-hIgG1-L6-hIL-2 (D20A/E95A/E62K) (protein)
heavy: EVQLVESGGGLVQPGRSLKLSCAVSGFTFSDYAMAWVRQAPKKGLEWVATISYDGSRTYYRDSVKGRFTISRDNAKITLYLQMDSLRSEDTATYYCARHGSGYFDYWGQGVMVTVSS[not shown - human IgG1 constant region]SGGGGSAPTSSSTKKTQLQLEHLLLALQMILNGINNYKNPKLTRMLTFKFYMPKKATELKHLQCLEEKLKPLEEVLNLAQSKNFHLRPRDLISNINVIVLALKGSETTFMCEYADETATIVEFLNRWITFCQSIISTLT
light: DTVLTQSPALAVSPGERVTISCRASESVRTGVHWYQQKPGQQPKLLIYGASNLESGVPARFSGSGSGTDFTLTIDPVEADDTATYFCQQSWNDPFTFGSGTKLEIKRTVAAPSVFIFPPSDEQLKSGTASVVCLLNNFYPREAKVQWKVDNALQSGNSQESVTEQDSKDSTYSLSSTLTLSKADYEKHKVYACEVTHQGLSSPVTKSFNRGEC
Regarding B1, the Fold change from rhIL-2 (TF1 + IL-2Rβ) in assay [1] is over 10000 fold. Further, in assay [2], the Fold change from hIL-2 (NK-92) worked out at 25 fold and the Fold change from rhIL-2 (NK-92) was over 10000 fold. Moreover, the Fold change from hIL-2 (TF1 + IL-2Rβ) in assay [3] is 15 fold. In assay [4], this molecule displayed an Agonistic Activity (NK-92), pSTAT5 titration of 10% and a Fold change from rhIL-2 (NK-92), pSTAT5 titration of over 10000 fold. For the same molecule, in assay [5], the Agonistic Activity (TF1 + IL-2Rβ), pSTAT5 titration is 10% and the Fold change from rhIL-2 (TF1 + IL-2Rβ), pSTAT5 titration was over 10000 fold.

B2: 1H3-hIgG1-L6-hIL-2 (D20A/E95A/E62Y) (protein)
heavy: EVQLVESGGGLVQPGRSLKLSCAVSGFTFSDYAMAWVRQAPKKGLEWVATISYDGSRTYYRDSVKGRFTISRDNAKITLYLQMDSLRSEDTATYYCARHGSGYFDYWGQGVMVTVSS[not shown - human IgG1 constant region]SGGGGSAPTSSSTKKTQLQLEHLLLALQMILNGINNYKNPKLTRMLTFKFYMPKKATELKHLQCLEEYLKPLEEVLNLAQSKNFHLRPRDLISNINVIVLALKGSETTFMCEYADETATIVEFLNRWITFCQSIISTLT
light: B1 light
Turning to B2, in assay [1], the Agonistic Activity (TF1 + IL-2Rβ) was found to be 30% and the Fold change from rhIL-2 (TF1 + IL-2Rβ) was determined as 982 fold. Besides, in assay [2], the Agonistic Activity (NK-92) was 40%, the Fold change from hIL-2 (NK-92) is 25 fold and the Fold change from rhIL-2 (NK-92) is 721 fold. In addition, in assay [3], the Fold change from hIL-2 (TF1 + IL-2Rβ) was 10 fold. In assay [4], the Agonistic Activity (NK-92), pSTAT5 titration worked out at 70% and the Fold change from rhIL-2 (NK-92), pSTAT5 titration is over 10000 fold. Also, in assay [5], the Agonistic Activity (TF1 + IL-2Rβ), pSTAT5 titration was 40% and the Fold change from rhIL-2 (TF1 + IL-2Rβ), pSTAT5 titration came out at 265 fold.

B3: 1H3-hIgG1-L6-hIL-2 (D20A/E95A/L72D) (protein)
heavy: EVQLVESGGGLVQPGRSLKLSCAVSGFTFSDYAMAWVRQAPKKGLEWVATISYDGSRTYYRDSVKGRFTISRDNAKITLYLQMDSLRSEDTATYYCARHGSGYFDYWGQGVMVTVSS[not shown - human IgG1 constant region]SGGGGSAPTSSSTKKTQLQLEHLLLALQMILNGINNYKNPKLTRMLTFKFYMPKKATELKHLQCLEEELKPLEEVLNDAQSKNFHLRPRDLISNINVIVLALKGSETTFMCEYADETATIVEFLNRWITFCQSIISTLT
light: B1 light
With B3, in assay [1], the Agonistic Activity (TF1 + IL-2Rβ) turned out to be 90% and the Fold change from rhIL-2 (TF1 + IL-2Rβ) was determined as 125 fold. Further, in assay [2], the Fold change from hIL-2 (NK-92) was determined as 21 fold and the Fold change from rhIL-2 (NK-92) is 5420 fold. The Fold change from hIL-2 (TF1 + IL-2Rβ) in assay [3] turned out to be 6 fold. In assay [4], the Agonistic Activity (NK-92), pSTAT5 titration came out at 70% and the Fold change from rhIL-2 (NK-92), pSTAT5 titration is over 10000 fold. Besides, in assay [5], the Agonistic Activity (TF1 + IL-2Rβ), pSTAT5 titration lay in the range of 60 to 70%.

B4: 1H3-hIgG1-L6-hIL-2 (D20A/E95A/Y45R) (protein)
heavy: EVQLVESGGGLVQPGRSLKLSCAVSGFTFSDYAMAWVRQAPKKGLEWVATISYDGSRTYYRDSVKGRFTISRDNAKITLYLQMDSLRSEDTATYYCARHGSGYFDYWGQGVMVTVSS[not shown - human IgG1 constant region]SGGGGSAPTSSSTKKTQLQLEHLLLALQMILNGINNYKNPKLTRMLTFKFRMPKKATELKHLQCLEEELKPLEEVLNLAQSKNFHLRPRDLISNINVIVLALKGSETTFMCEYADETATIVEFLNRWITFCQSIISTLT
light: B1 light
B4: in assay [1], the Agonistic Activity (TF1 + IL-2Rβ) is 50% and the Fold change from rhIL-2 (TF1 + IL-2Rβ) was found to be 57 fold. In assay [2], this molecule showed a Fold change from hIL-2 (NK-92) of 25 fold and a Fold change from rhIL-2 (NK-92) of over 10000 fold. In addition, the Fold change from hIL-2 (TF1 + IL-2Rβ) in assay [3] amounted to 6 fold. For the same molecule, in assay [4], the Agonistic Activity (NK-92), pSTAT5 titration worked out at 80% and the Fold change from rhIL-2 (NK-92), pSTAT5 titration was over 10000 fold. Besides, in assay [5], the Agonistic Activity (TF1 + IL-2Rβ), pSTAT5 titration is 60% and the Fold change from rhIL-2 (TF1 + IL-2Rβ), pSTAT5 titration is 293 fold.

B5: 1H3-hIgG1-L6-hIL-2 (D20A/E95A/E68A) (protein)
heavy: EVQLVESGGGLVQPGRSLKLSCAVSGFTFSDYAMAWVRQAPKKGLEWVATISYDGSRTYYRDSVKGRFTISRDNAKITLYLQMDSLRSEDTATYYCARHGSGYFDYWGQGVMVTVSS[not shown - human IgG1 constant region]SGGGGSAPTSSSTKKTQLQLEHLLLALQMILNGINNYKNPKLTRMLTFKFYMPKKATELKHLQCLEEELKPLEAVLNLAQSKNFHLRPRDLISNINVIVLALKGSETTFMCEYADETATIVEFLNRWITFCQSIISTLT
light: B1 light
Take B5: in assay [1], the Agonistic Activity (TF1 + IL-2Rβ) was 80% and the Fold change from rhIL-2 (TF1 + IL-2Rβ) turned out to be 535 fold. Moreover, in assay [2], the Agonistic Activity (NK-92) was 50%, the Fold change from hIL-2 (NK-92) was 5 fold and the Fold change from rhIL-2 (NK-92) stood at 6 fold. The Fold change from hIL-2 (TF1 + IL-2Rβ) in assay [3] is 8 fold. In assay [4], this molecule yielded an Agonistic Activity (NK-92), pSTAT5 titration of 60% and a Fold change from rhIL-2 (NK-92), pSTAT5 titration of 45 fold. For the same molecule, in assay [5], the Agonistic Activity (TF1 + IL-2Rβ), pSTAT5 titration stood at 60% and the Fold change from rhIL-2 (TF1 + IL-2Rβ), pSTAT5 titration amounted to 620 fold.

B6: 1H3-hIgG1-L6-hIL-2 (D20A/E95A/E62R) (protein)
heavy: EVQLVESGGGLVQPGRSLKLSCAVSGFTFSDYAMAWVRQAPKKGLEWVATISYDGSRTYYRDSVKGRFTISRDNAKITLYLQMDSLRSEDTATYYCARHGSGYFDYWGQGVMVTVSS[not shown - human IgG1 constant region]SGGGGSAPTSSSTKKTQLQLEHLLLALQMILNGINNYKNPKLTRMLTFKFYMPKKATELKHLQCLEERLKPLEEVLNLAQSKNFHLRPRDLISNINVIVLALKGSETTFMCEYADETATIVEFLNRWITFCQSIISTLT
light: B1 light
As for B6, the Fold change from rhIL-2 (TF1 + IL-2Rβ) in assay [1] is over 10000 fold. In assay [2], this molecule returned a Fold change from hIL-2 (NK-92) of 25 fold and a Fold change from rhIL-2 (NK-92) of over 10000 fold. In addition, the Fold change from hIL-2 (TF1 + IL-2Rβ) in assay [3] turned out to be 17 fold. Further, in assay [4], the Agonistic Activity (NK-92), pSTAT5 titration worked out at 5% and the Fold change from rhIL-2 (NK-92), pSTAT5 titration is over 10000 fold. For the same molecule, in assay [5], the Agonistic Activity (TF1 + IL-2Rβ), pSTAT5 titration came to 10% and the Fold change from rhIL-2 (TF1 + IL-2Rβ), pSTAT5 titration was over 10000 fold.

B7: 1H3-hIgG1-L6-hIL-2 (D20A/E95A/E68Y) (protein)
heavy: EVQLVESGGGLVQPGRSLKLSCAVSGFTFSDYAMAWVRQAPKKGLEWVATISYDGSRTYYRDSVKGRFTISRDNAKITLYLQMDSLRSEDTATYYCARHGSGYFDYWGQGVMVTVSS[not shown - human IgG1 constant region]SGGGGSAPTSSSTKKTQLQLEHLLLALQMILNGINNYKNPKLTRMLTFKFYMPKKATELKHLQCLEEELKPLEYVLNLAQSKNFHLRPRDLISNINVIVLALKGSETTFMCEYADETATIVEFLNRWITFCQSIISTLT
light: B1 light
For the molecule B7, in assay [1], the Fold change from rhIL-2 (TF1 + IL-2Rβ) was 469 fold. Further, in assay [2], the Fold change from hIL-2 (NK-92) worked out at 8 fold and the Fold change from rhIL-2 (NK-92) stood at 11 fold. In assay [3], the Fold change from hIL-2 (TF1 + IL-2Rβ) turned out to be 5 fold. In assay [4], the Agonistic Activity (NK-92), pSTAT5 titration was determined as 80% and the Fold change from rhIL-2 (NK-92), pSTAT5 titration was found to be 131 fold. Besides, in assay [5], the Agonistic Activity (TF1 + IL-2Rβ), pSTAT5 titration turned out to be 50% and the Fold change from rhIL-2 (TF1 + IL-2Rβ), pSTAT5 titration came out at 61 fold.
